# Assay results published in PubChem BioAssay (Tox21).
# Values joined by “and” are separate entries in the source; they are usually repeats but may differ in a detail not shown here. Equal entries are not always repeated. Inconclusive means that the source gave no clear call. Such entries were picked first, then a sample of the others. Potencies of inconclusive entries are doubtful fits and often do not repeat. Active and inactive are the calls of the source. Unless noted, calls come from the whole dose curve; as a rule, active = well fitted cell-killing curve with a large enough effect in the repeat runs; inconclusive = weak or mixed curves, or effect the other way; inactive = flat fitted curve, though single readings scatter.
# Target: Estrogen receptor beta (Homo sapiens) (UniProt Q92731)
# Experiment: qHTS assay to identify small molecule antagonists of the estrogen receptor beta (ER-beta) signaling pathway (AID 1259378; active = well fitted inhibition curve with a large enough effect in the signal ratio in the repeat runs, not every such curve was filed as active; inconclusive = weak or mixed curves, or effect the other way; inactive = no such curve, though single readings can be large or run the other way; the % refers to the signal ratio)
# Conditions: ER-beta-UAS-bla HEK293T, beta-lactamase FRET ratio, 16 h; activity, negative = inhibition: at 92.4 µM (top of the series) unless noted
# Procedure, shortened: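 ER-beta-UAS-bla HEK293T cells in 2% charcoal-stripped FBS medium treated with compound plus 1nM final 17-beta-estradiol for 16 hr at 37C. Beta-lactamase reporter read by FRET substrate fluorescence after 2 hours at room temperature.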
# % is set by controls: 0 for no effect and ±100 for the full control effect; potency is the fitted concentration of half-maximal effect; tags give direction and shape of the fitted curve or compound fluorescence and quenching.
# Chain of UniProt Q92731 (Q92731 whole entry, looked up): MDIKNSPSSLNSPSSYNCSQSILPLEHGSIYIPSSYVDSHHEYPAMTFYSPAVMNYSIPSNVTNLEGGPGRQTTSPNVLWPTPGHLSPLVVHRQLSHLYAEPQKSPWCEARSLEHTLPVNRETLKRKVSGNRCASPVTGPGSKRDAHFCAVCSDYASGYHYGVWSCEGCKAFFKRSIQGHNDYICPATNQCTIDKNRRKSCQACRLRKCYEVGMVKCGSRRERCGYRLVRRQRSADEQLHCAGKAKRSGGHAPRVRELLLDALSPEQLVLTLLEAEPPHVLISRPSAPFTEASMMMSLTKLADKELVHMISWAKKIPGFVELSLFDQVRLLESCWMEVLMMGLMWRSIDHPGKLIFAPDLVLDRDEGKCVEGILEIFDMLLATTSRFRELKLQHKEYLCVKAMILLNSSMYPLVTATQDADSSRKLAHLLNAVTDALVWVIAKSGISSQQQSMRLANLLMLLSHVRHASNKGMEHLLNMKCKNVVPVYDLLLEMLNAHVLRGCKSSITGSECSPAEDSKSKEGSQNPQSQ
Compound,Potency,"activity, negative = inhibition"
Cc1cccc(S(=O)(=O)O)c1C,inactive,–
O=C(O)CO,inactive,–
Nc1c(Cl)cc(Cl)cc1[N+](=O)[O-],inactive,–
CN(C)[C@@H]1C(=O)C(C(N)=O)=C(O)[C@@]2(O)C(=O)C3=C(O)c4c(O)cccc4C[C@H]3C[C@@H]12,inconclusive: 29.8 µM [partial curve],–
Oc1cccc2ccccc12,"inconclusive: 28 µM [inhibitor, partial curve]",inconclusive: -44%
OCCCCCO,inactive,–
CN(C)C(C)(C)CO,inactive,–
CC(=O)c1ccc[nH]1,inactive,–
CC(C)(C)c1ccccc1,inactive,–
CCc1cccc2c3c([nH]c12)C(CC)(CC(=O)O)OCC3 (stereo not given),inactive,–
CCOc1ccccc1O[C@H](c1ccccc1)[C@H]1CNCCO1,–,inconclusive: -11.1% [at 42.5 µM]
CCCCC(CC)COC(=O)C(C#N)=C(c1ccccc1)c1ccccc1 (stereo not given),"active: 19.3 µM and inconclusive: 7.5 µM [inhibitor, full curve]",–
CC(O)Cn1cnc2c1c(=O)n(C)c(=O)n2C (stereo not given),inactive,–
O=C(O)CCCc1ccccc1,–,inconclusive: 24.3% [at 42.5 µM]
c1ccc2c(c1)ccc1ncccc12,–,inconclusive: -24.9%
CC1(C)NC(=O)N(c2ccc([N+](=O)[O-])c(C(F)(F)F)c2)C1=O,–,inconclusive: -24.2%
CC(C)COC(=O)c1ccc(O)cc1,–,inconclusive: -51.6%
CCSC(=O)N(CC)CC,–,inconclusive: 34%
CN(C)CCc1c[nH]c2ccc(C[C@H]3COC(=O)N3)cc12,inactive,–
O=S1(=O)OC(c2ccc(O)cc2)(c2ccc(O)cc2)c2ccccc21,–,inconclusive: 10.2% [at 42.5 µM]

Compound,Potency,"activity, negative = inhibition"
CCC/C=C/C=O,–,inconclusive: 3.51%
COc1ccc(O)cc1,–,inconclusive: -33.6%
Oc1cccc2[nH]ccc12,inactive,–
Oc1ccc2ccccc2c1,"inconclusive: 49.7 µM [rising, partial curve, poor fit]",inconclusive: -29.3%
CCCCCC1Nc2cc(C(F)(F)F)c(S(N)(=O)=O)cc2S(=O)(=O)N1 (stereo not given),inactive,–
NCCNCCNCCNCCN,inactive,–
CCSC(=O)N(CC(C)C)CC(C)C,–,inconclusive: 29.9%
O=C1CCCCC1,–,inconclusive: -28.7%
COc1ccc([C@@H]2Sc3ccccc3N(CCN(C)C)C(=O)[C@@H]2OC(C)=O)cc1,–,inconclusive: -33.9% [at 42.5 µM]
c1ccc(CCc2ccccc2)cc1,–,inconclusive: 25.6%
CN1C[C@@H]2C[C@H]1CN2c1cc2c(cc1F)c(=O)c(C(=O)O)cn2C1CC1,–,inconclusive: 39.2% [at 19 µM]
O=C(OCC1CO1)C1CCCCC1C(=O)OCC1CO1 (stereo not given),–,inconclusive: -42.7%
CCCc1ccccc1O,inactive,–
CCOC(=O)C(C)C(C)=O (stereo not given),inactive,–
CCCC(O)C(CC)CO (stereo not given),inactive,–
COCC(C)N (stereo not given),–,inconclusive: 24.5%
CCc1cc2cc(OC)c(OC)cc2c(Cc2ccccc2)n1,–,inconclusive: -36% [at 42.5 µM]
O=c1[nH][nH]c(=O)c2cc([N+](=O)[O-])ccc12,inactive,–
CC(=O)OC(C)C,inactive,–
OCc1ccccc1O,–,inconclusive: 19.7% [at 42.5 µM]

# Test system: not listed separately
# Experiment: qHTS assay to identify small molecule agonists of the estrogen receptor beta (ER-beta) signaling pathway - cell viability counter screen (AID 1259380); note: nearly all actives have a fitted effect of over 30% in size
# Conditions: ER-beta-bla HEK293T viability, CellTiter-Glo luminescence, 16 h; series mostly up to 92.4 µM
# Procedure, shortened: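 ER-beta-UAS-bla HEK293T cells in medium with 2% charcoal-stripped FBS, pre-incubated 6 hr, then treated 16 hr at 37C. Cytotoxicity read in the same wells by CellTiter-Glo luminescence after 30 min at room temperature.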
row,Compound,Potency
1,CC1(C)NC(=O)N(c2ccc([N+](=O)[O-])c(C(F)(F)F)c2)C1=O,"inconclusive: 13.3 µM [rising, partial curve, poor fit]"
2,CCC/C=C/C=O,inactive
3,COCC(C)N (stereo not given),"inconclusive: 66.8 µM [rising, single point]"
